# Measurements from PubChem BioAssay AID1508642 (National Center for Advancing Translational Sciences (NCATS), 2021).
# Among all 43,000 compounds or so, about 200 (0.47%) were called active. Roughly 12% stayed inconclusive and do not appear here. Calls come from the whole dose curve; as a rule, active = well fitted cell-killing curve with a large enough effect; inconclusive = small, poorly fitted or top-dose-only effect, or effect the other way; inactive = flat fitted curve, though single readings scatter. The list shows a part of the results.
# Test: Cell viability qHTS assay in S16 Pmp22-F2sN cells; note: nearly all actives have a fitted effect of over 65% in size
# Details: S16 Pmp22-F2sN Schwann cells viability, CellTiter-Glo, 24 h; series mostly up to 57.5 µM; activity change, negative = cytotoxicity: at the top concentration
# Procedure, shortened: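 S16 Pmp22-F2sN Schwann cells (500-1,000/well) in phenol-red-free DMEM with 10% FBS received 23 nL compound by pin tool for 24 h at 37 °C. Viability was then read as CellTiter-Glo luminescence after 15 min at room temperature.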
# % is set by controls: 0 for no effect and ±100 for the full control effect.
row,SMILES,"activity change, negative = cytotoxicity"
1,Cc1c(Cl)cccc1NC(=O)CCn1nc(C)c2c(C)n(-c3ccccc3)nc2c1=O,inactive: 6.25%
2,COc1ccc(S(=O)(=O)N(CC(=O)NCc2ccc(C)cc2)c2ccc(Cl)cc2)cc1,inactive: 16.9%
3,COc1cc(C2c3c(oc4ccccc4c3=O)C(=O)N2c2nnc(C(C)C)s2)cc(OC)c1OC (stereo unspecified),inactive: 2.77%
4,CCOc1ccc(OCC)c(NC(=O)CCc2c(C)nc3c(c2C)c(=O)n(C)c(=O)n3C)c1,inactive: -3.16%
5,CCSc1ncc(Cl)c(C(=O)Nc2c(C(=O)Nc3ccc(Cl)cc3)oc3ccccc23)n1,inactive: 0.793%
6,O=C(c1ccc2c(c1)N(Cc1ccccc1)C(=O)c1ccccc1S2(=O)=O)N1CCN(c2ccccn2)CC1,inactive: -2.22%
7,Cc1ccc(Cn2ccn(Cc3ccccc3C)c(=O)c2=O)cc1,inactive: 0.932%
8,COC(=O)c1ccccc1NC(=O)Cn1c(=O)n(-c2ccc(Cl)cc2)c(=O)c2c(C)c(C)sc21,inactive: 11%
9,COc1ccc(CNC(=O)c2ccc3c(c2)nc2n3CCCCC2)c(OC)c1,inactive: 6.94%
10,CCOC(=O)c1cccc(NS(=O)(=O)c2cn(C)c(C)n2)c1,inactive: -3.83%
11,CCc1ccc(S(=O)(=O)c2nnn3c2nc(N2CCCC2)c2sccc23)cc1,inactive: -3.19%
12,COc1ccc(-n2cc(-c3ccccc3)nc2SCC(=O)Nc2ccccc2)cc1Cl,inactive: -2.51%
13,CCCn1c(NCc2ccccc2C)nc2ccccc21,inactive: 16.4%
14,COc1ccc(NC(=O)COCc2cc(-c3cccs3)on2)cc1,inactive: 1.04%
15,Cc1ccccc1C1C=C(c2ccc(Cl)cc2)Nc2nnnn21 (stereo unspecified),inactive: -2.34%
16,CN1C(=O)Cc2cc(S(=O)(=O)CCC(=O)N3CCN(c4ccccc4F)CC3)ccc21,inactive: -23.1%
17,COc1ccc(-c2cc(C(F)(F)F)n3nc(C(=O)Nc4cccc(Cl)c4C)cc3n2)cc1,inactive: 4.26%
18,CCOC(=O)c1ccc(NC(=O)Cn2cnc(S(=O)(=O)N3CCCC3)c2)cc1,inactive: -13.6%
19,CCOC(=O)c1ccc(NC(=O)CC2C(=O)N(c3ccc(F)cc3)C(=O)N2Cc2ccc3c(c2)OCO3)cc1 (stereo unspecified),inactive: -25%
20,CCOC(=O)c1cccc(NC(=O)C2CCN(S(=O)(=O)c3cn(C)cn3)CC2)c1,inactive: 0.401%
21,Cc1ccc(C)c(NS(=O)(=O)c2cc3c(cc2Cl)NC(=O)CO3)c1,inactive: -5.39%

row,SMILES,"activity change, negative = cytotoxicity"
1,Cc1ccc2oc3c(c(=O)c2c1)C(c1ccc(F)cc1)N(c1nc(C)c(C)s1)C3=O (stereo unspecified),inactive: 6.3%
2,COCCNC(=O)C(=O)NCC(c1cccnc1)N1CCN(c2ccccc2F)CC1 (stereo unspecified),inactive: -3.38%
3,COc1ccc(C2CC(=O)Nc3c2c(=O)[nH]c2nc4ccccc4n32)cc1OC (stereo unspecified),inactive: 1.37%
4,COc1ccccc1Nc1nc2ccc(Cl)cc2nc1-n1nc(C)cc1C,inactive: -0.302%
5,COc1ccc(NC(=O)c2nc3nc(C)cc(C(F)F)n3n2)c(C)c1,inactive: -13.9%
6,CCc1ccc(NC(=O)N2CC(C)Oc3ccc(C)cc32)cc1 (stereo unspecified),inactive: 0.258%
7,COCCCNc1ncnc2c1cnn2-c1ccc(F)cc1,inactive: -10.8%
8,O=C(c1ccccc1Cl)n1nc(-c2cccnc2)nc1NCc1ccc(F)cc1,inactive: 6.85%
9,COC(=O)c1scc(-c2ccccc2)c1S(=O)(=O)Nc1cccc(C)c1C,inactive: 18.4%
10,CCCCOc1ccc(C(=O)N(Cc2ccc(C(C)C)cc2)C2CCS(=O)(=O)C2)cc1 (stereo unspecified),inactive: 1.11%
11,Cc1c(CNC(C)CCc2ccccc2)c(C(=O)O)c(C)n1Cc1ccc(F)cc1Cl (stereo unspecified),inactive: 5.76%
12,O=C(Nc1ccccc1-c1nc2ccccc2s1)c1cc(Cl)cc(Cl)c1,inactive: 0.0383%
13,COc1ccc(C2=NN(CC(=O)NCCCN(C)c3ccccc3)C(=O)CC2)cc1,inactive: -0.217%
14,COC(=O)c1cc2sc(C)cc2n1Cc1ccc(Br)cc1F,inactive: 6.4%
15,COc1ccc(N2CCN(C3=NS(=O)(=O)C(c4cccc(Br)c4)=C3C)CC2)cc1,inactive: 20.7%
16,CCOC(=O)c1ccc(NC(=O)CCc2c(C)nc3nc[nH]n3c2=O)cc1,inactive: -0.266%
17,Cc1cc(C)c(NC(=O)CCc2c(C)nc3c(c(C)nn3C(C)(C)C)c2C)c(C)c1,inactive: -1.66%
18,CCOC(=O)Cn1c(=O)n(C2CCCCC2)c2nc(-c3ccc(Cl)cc3)nc(C(N)=O)c21,inactive: -8.91%
19,Cc1ccc2c(=O)cc(CSc3nnc(-c4ccccc4)n3C)[nH]c2c1C,inactive: 13%
20,CC(C)c1ccc(S(=O)(=O)Nc2ccc3oc4c(c3c2)C(=O)CC(C)(C)C4)cc1,inactive: -1.14%
21,Cc1cc(C)c(NC(=O)c2cc3c(=O)n4ccccc4nc3n2C)c(C)c1,inactive: 1.38%

row,SMILES,"activity change, negative = cytotoxicity"
1,Cc1cc(-c2nc3ncccc3o2)ccc1NC(=O)c1ccc(Br)cc1,inactive: 4.36%
2,COc1ccc(OCC(=O)NCC(c2ccc(Cl)cc2)N2CCCCC2)cc1 (stereo unspecified),inactive: 0.974%
3,CSc1ccc(CNC(=O)c2ccccc2NC(=O)c2nsc3ccccc23)cc1,inactive: -7.08%
4,CC(=O)N1c2ccccc2C(=O)C1N1CCN(c2ccccc2)CC1 (stereo unspecified),inactive: -0.681%
5,COc1ccc(NC(=O)c2c(-c3ccccc3)c(-c3ccccc3)nn(C)c2=O)c(OC)c1,inactive: 0.998%
6,Cc1c(Cl)cccc1NC(=O)c1ccc(C(=O)Nc2cccc(Cl)c2C)cc1,inactive: 10.4%
7,CC1CCN(C(=O)c2cnn(-c3cccc(Cl)c3)c2C2CCN(C(=O)OC(C)(C)C)CC2)CC1,inactive: 8.5%
8,CC(=O)N1CCc2c(sc3c2c(=O)n(-c2ccccc2C)c(=O)n3Cc2cccc(F)c2)C1,inactive: 29.3%
9,COc1cc(OC)cc(-n2nnc(-c3nc(-c4ccccc4Cl)no3)c2N)c1,inactive: -1%
10,CCN(c1ccccc1)S(=O)(=O)c1ccc(NC(=O)c2cc(=O)c3cc(C)c(C)cc3o2)cc1,inactive: 4.62%
11,Cc1cccc(NS(=O)(=O)c2ccc3c(c2)CCN3C(=O)CCC(=O)O)c1C,inactive: -4.2%
12,Cc1ccc(NC(=O)CSc2nc3c([nH]c4ccccc43)c(=O)n2-c2ccccc2)c(C)c1,inactive: 14.3%
13,CCCCN1CCc2nc(N3CCN(c4ncccn4)CC3)ncc2C1,inactive: -12.6%
14,CCOc1ccc(C(=O)Nc2ccc3nc(SCc4ccccc4)sc3c2)cc1,inactive: 9.46%
15,COc1ccccc1N1CCN(C(=O)Cn2c(=O)nc(-c3ccccc3)c3cc(Cl)ccc32)CC1,inactive: 28.3%
16,CCOc1ccc(NC(=O)c2ccc(-c3ccccc3)s2)cc1,inactive: 14.1%
17,Cc1nc2c(-c3ccc(F)cc3)c(C)nn2c(C)c1CCC(=O)NCc1ccc(Cl)cc1,inactive: 11.7%
18,COc1cccc(-n2cc(C(=O)NCc3cccc(Cl)c3)c3ccccc3c2=O)c1,inactive: -20%
19,COc1ccc(S(=O)(=O)Nc2cc3c(cc2NCc2ccccc2)n(C)c(=O)n3C)cc1OC,inactive: -19.9%
